The values below come from ChEMBL document CHEMBL4888484, “Replenishing the malaria drug discovery pipeline: Screening and hit evaluation of the MMV Hit Generation Library 1 (HGL1) against asexual blood stage Plasmodium falciparum ,using a nano luciferase reporter read-out” (2022).

SMILES strings stand for the structures. Out of some 150,000 compounds screened, about 540 (0.36%) showed an effect of 50% or more. Some of the results follow.

The experiment has as its system Plasmodium falciparum. In words: Primary screen in NF54 nanoGlo assay, in single point, at 2uM, 72h; a lower Z score goes with more inhibition. It is filed as functional, Erythrocyte. To be noted: timepoint 72 hour.
`CCCc1nc(N2CCN(C(=O)c3ccc(Cl)c(Cl)c3)CC2)c2c(-c3ccccc3)noc2n1`: the “% Inhibition” value is on record as 1% and the Z score is given as -0.07.
In the case of `COc1cccc2c1nc(NC(=O)[C@H](C1CC1)N1CCCC1)n2C`, the “% Inhibition” value is recorded as 0% and the Z score amounted to 0.03.
In the case of `CCc1ncc(C(=O)N2CC[C@@]3(C2)C(=O)N(CC(N)=O)c2ccccc23)cn1`, the “% Inhibition” value is listed as -3% and the Z score stood at 0.56.
For `COc1cccc2c1CCCCN2C(=O)[C@H]1CC(=O)N(C2CC2)C1`, the “% Inhibition” value is -5% and the Z score is reported as 0.72.
Turning to `O=C(NCCNc1ncccn1)C1CC2CCC1C2` (stereo not drawn), the “% Inhibition” value is -4% and the Z score came to 0.73.
Consider `O=C(c1cccc(-c2cc(O)c(F)c(F)c2)c1)N1CCC[C@@]2(CCNC2)C1`, for which the “% Inhibition” value was -5% and the Z score was 0.5.
In the same order, the values of `CC(C)n1ncnc1NC(=O)N1Cc2ccc(Cl)cc2C1` are 3% and -0.6.
For the molecule `Cc1ccsc1-c1cccc(C(=O)N(C)C[C@H]2COCCO2)c1`, the “% Inhibition” value is -2% and the Z score turned out to be 0.48.
Regarding `Cc1[nH]c2c(c1C(=O)NCc1noc(C3CC3)n1)C(=O)CCC2`, the “% Inhibition” value came to 3% and the Z score was -0.44.
In the case of `CN(C)C(=O)C1C[C@@H]2OCC[C@@H]2N1C(=O)CCc1cccnc1` (stereo partly drawn), the “% Inhibition” value is given as 0% and the Z score is listed as 0.02.
Consider `CC1CC(N(C)Cc2cccc(Cl)c2)C(=O)O1` (stereo not drawn), for which the “% Inhibition” value is given as 37% and the Z score is -3.77.
Take `COCC(=O)N1CC[C@H](Nc2nc(C(C)C)ccc2C#N)[C@@H](O)C1`: the “% Inhibition” value came out at 1% and the Z score is -0.29.
In the case of `O=C(Nc1ccc2c(c1)OCO2)N1CC(OC[C@H]2CCOC2)C1`, the “% Inhibition” value worked out at 7% and the Z score was -0.94.
For `O=C(c1ccc(Cl)cc1-n1cnnn1)N1CCC[C@H]1c1nc2ccccc2[nH]1`, in that order: -6% and 0.74.
As to `CCCn1cc(CN(C)Cc2nncn2C)c(C)n1`, the “% Inhibition” value came out at 7% and the Z score is listed as -0.95.
Consider `CC(C)(C)[C@H](NS(=O)(=O)Cc1ccon1)c1ccco1`, for which the “% Inhibition” value amounted to 7% and the Z score is on record as -0.69.
Turning to `Cc1cc(NC(=O)N[C@@H](C)Cc2ccco2)n(C)n1`, the “% Inhibition” value is given as -7% and the Z score is 1.41.
Consider `O=C(c1cccnc1)N(Cc1ccco1)Cc1cc2ccccc2[nH]c1=O`, for which the “% Inhibition” value was found to be 30% and the Z score is on record as -3.38.
`C[C@H](Nc1cnn(CC(F)F)c1)c1nc(C2CC2)no1`: the “% Inhibition” value is listed as -4% and the Z score came out at 0.45.
On to `Cc1ccc(Nc2nc(C(=O)NCc3cccnc3)cs2)c(C)c1`, for which the “% Inhibition” value is reported as -2% and the Z score was determined as 0.25.
Turning to `O=C(c1cccc(C(F)(F)F)c1)N1CC(CN2CCCCC2)C(c2cccc(C(F)(F)F)c2)C1` (stereo not drawn), the “% Inhibition” value is on record as 2% and the Z score is given as -0.25.
For `Cc1ccc(C(=O)N2Cc3c(-c4ccncc4)nc(N)nc3[C@@H]2C)c(=O)[nH]1`, in that order: 13% and -1.85.
For the molecule `CCOc1ccc(CNC(=O)CNC2=NS(=O)(=O)C(c3ccc(C)cc3)=C2CC)cc1OC`, the “% Inhibition” value is listed as -9% and the Z score is recorded as 1.44.
Turning to `Cc1cc(C)c2c(c1)CCN(c1nc(N)c3cnn(C)c3n1)C2`, the “% Inhibition” value is -4% and the Z score was found to be 0.48.
Turning to `Cc1cc(C(=O)N2CCCCCCC2)no1`, the “% Inhibition” value is recorded as -14% and the Z score came to 2.04.
With `NC(=O)c1ccc(CN2CCN(c3cncc4ccccc34)CC2)cc1`, the “% Inhibition” value is on record as 0% and the Z score came to 0.06.
For `CO[C@H]1COCC[C@@H]1Nc1nnnn1-c1ccccc1`, in that order: -7% and 1.28.
As to `COc1cc2ccccc2cc1[C@@H]1CCCCN1`, the “% Inhibition” value is -11% and the Z score is given as 1.33.
On to `CC[C@H](NCc1nc(C(F)(F)F)cs1)c1c(C)noc1C`, for which the “% Inhibition” value was -11% and the Z score is given as 1.06.
For the molecule `CCN1CCC[C@@H]1CNC(=O)Nc1c(-c2ccccc2OC)c(C)nn1C`, the “% Inhibition” value is recorded as -14% and the Z score is recorded as 2.05.
As for `CC(=O)Nc1ccc(CN2CC[C@H](C)S(=O)(=O)CC2)cc1`, the “% Inhibition” value is given as -15% and the Z score is listed as 1.55.
With `CN(Cc1nccn1C)c1ccc(F)cn1`, the “% Inhibition” value was -6% and the Z score is 0.61.
In the case of `CCCCc1cc(C[C@H]2CNCC[C@H]2CC(=O)N2CCCCC2)no1`, the “% Inhibition” value was -16% and the Z score stood at 3.1.
`CN1CCN(c2nc3c(s2)CN(C(=O)c2ccncc2)CC3)CC1`: the “% Inhibition” value was -24% and the Z score was determined as 3.19.
`COCc1nc(C)c(C(=O)OCC2(O)CCC2)s1`: the “% Inhibition” value is listed as 9% and the Z score is -1.35.
On to `CC[C@@H](CO)N(CC1=CCCN(Cc2ccccn2)C1)C(C)=O`, for which the “% Inhibition” value is -6% and the Z score turned out to be 0.63.
Consider `Cn1ccc(NC(=O)NCCc2csc(-c3ccccc3)n2)n1`, for which the “% Inhibition” value was -10% and the Z score is 1.44.
For `COc1cc2nc(C)sc2cc1NC(=O)N(C)C1CC2CCC(C1)N2C` (stereo not drawn), the “% Inhibition” value is recorded as -8% and the Z score turned out to be 1.58.
`CC1CCN(C[C@H]2CCCN(C(=O)CC3CCCC3)CC2)CC1`: the “% Inhibition” value is listed as -6% and the Z score is listed as 0.87.
Turning to `Cc1ccccc1NCCCNc1ccccc1C`, the “% Inhibition” value was -12% and the Z score was determined as 1.59.
As for `Cc1nccn1CCCC(=O)N(Cc1ccco1)c1ccc(F)cc1`, the “% Inhibition” value is recorded as -6% and the Z score stood at 0.89.
As for `CCCc1nccn1Cc1ccc(Cl)s1`, the “% Inhibition” value is recorded as 1% and the Z score is -0.07.
As to `CN1CCN(C[C@@H]2OC[C@H](NS(=O)(=O)c3ccccc3)[C@H]2O)CC1`, the “% Inhibition” value was -1% and the Z score is listed as 0.2.
In the case of `Cn1nc(-c2cnccn2)cc1CNC(=O)Cc1ccsc1`, the “% Inhibition” value was found to be 15% and the Z score is listed as -1.97.
Regarding `CCc1ccc(O)c(C(=O)N2CCC(C(=O)N3CC(C)OC(C)C3)CC2)c1` (stereo not drawn), the “% Inhibition” value is reported as 3% and the Z score is on record as -0.33.
For `Cc1ccc(F)cc1CN1CCC(C(=O)NC2CC2)CC1`, in that order: -11% and 1.29.
For `COCc1ncc(C(=O)N2CC(Cc3ccoc3)C2)s1`, in that order: -1% and 0.08.
`CN1CCC(N(C[C@H]2CCOC2)C(=O)c2cccc(F)c2)CC1`: the “% Inhibition” value is recorded as 9% and the Z score was -1.17.
Turning to `CCn1ncc2ccc(N[C@@H](C)C3(O)CCOCC3)cc21`, the “% Inhibition” value stood at 38% and the Z score was -1.11.
In the same order, the values of `NC(=O)C1CCN([C@H]2CS(=O)(=O)C[C@@H]2S(=O)(=O)c2ccc(Cl)cc2)CC1` are 1% and -0.14.
In the case of `Cc1ccc(-c2nccn2[C@H](C(N)=O)C(C)C)c(Cl)c1Cl`, the “% Inhibition” value is on record as -7% and the Z score was 1.01.
For `Cn1c([C@H]2CCN(C(=O)c3cnccn3)C2)nc2ccccc21`, in that order: -9% and 1.14.
Consider `CCN(CC(=O)Nc1ccc(OC)cc1)CC(=O)Nc1cccc(S(=O)(=O)N2CCOCC2)c1`, for which the “% Inhibition” value is 6% and the Z score is -0.7.
Consider `CC(C)Cc1ccccc1CNC(=O)Nc1cc([C@H]2CCCOC2)nn1C`, for which the “% Inhibition” value was -9% and the Z score is on record as 1.23.
`CN(C)S(=O)(=O)c1cccc(C(=O)N2CCC[C@H](OCC3CC3)C2)c1`: the “% Inhibition” value was -3% and the Z score is given as 0.65.
Take `Nc1nnc(C2CCN(Cc3c(F)cccc3F)CC2)o1`: the “% Inhibition” value came to 11% and the Z score is -1.23.
With `COc1ccc(-c2cc(C(=O)OC[C@H]3CCCO3)c3ccccc3n2)cc1`, the “% Inhibition” value is reported as -3% and the Z score is 0.5.
`O=S(=O)(c1ccc(Cl)s1)n1ccnc1`: the “% Inhibition” value was -3% and the Z score stood at 0.48.
Consider `O=C(NCc1ccc(C(=O)N2CCN(c3nccs3)CC2)cc1)c1cccs1`, for which the “% Inhibition” value is -8% and the Z score is recorded as 1.57.
With `Cc1ccc2c(c1)-c1c(ssc1=S)C(C)(C)N2CC(=O)c1ccccc1`, the “% Inhibition” value is listed as -5% and the Z score worked out at 0.56.
In the same order, the values of `CCOc1ccc(NC(=O)c2c(-c3ccccc3)nnc3ccc(C)cc23)cc1` are 2% and -0.27.
Turning to `COc1ccccc1-c1cnoc1-c1ccc(OCc2ccc(C)cc2)cc1O`, the “% Inhibition” value is recorded as 7% and the Z score is given as -1.06.
On to `Cn1cc(-c2ccc(Cl)cc2)c2ncn(CC(=O)NC3CCCC3)c(=O)c21`, for which the “% Inhibition” value is recorded as 30% and the Z score is -3.99.
Consider `CN1CCCN(C(=O)c2cccnc2Oc2cccc(Br)c2)CC1`, for which the “% Inhibition” value was -3% and the Z score was 0.57.
As for `Oc1ccc(Cn2ccnc2-c2cc3n(n2)CCCNC3)cc1`, the “% Inhibition” value is -13% and the Z score is reported as 1.56.
In the same order, the values of `O=C(N[C@H](c1ccccc1)C1CC1)C(c1ccccc1)c1ccccc1` are 42% and -1.81.
In the same order, the values of `COCCN(C[C@H](O)C(F)(F)F)C(=O)c1cc(C)c(F)c(C)c1` are 4% and -0.53.
In the same order, the values of `Cc1ccc(C2(c3noc([C@@H]4CC[C@H](C)O4)n3)CCOCC2)cc1` are -17% and 1.67.
In the case of `C[C@@H]1CCN[C@H](C(F)(F)F)[C@@H]1NC(=O)C(F)(F)F`, the “% Inhibition” value is reported as -11% and the Z score is 1.78.
As to `Cc1cccn2c(CNC(=O)N(C)[C@H](c3ccccn3)C3CC3)cnc12`, the “% Inhibition” value worked out at 14% and the Z score is -2.57.
For `CN(C1CCCCC1)S(=O)(=O)N1CCC2(CC1)C[C@@H]2c1nnc(-c2ccccc2)o1`, the “% Inhibition” value is 0% and the Z score was found to be 0.01.
On to `Cc1n[nH]c(=O)nc1NCc1cccnc1`, for which the “% Inhibition” value is recorded as 0% and the Z score is -0.01.
For `CCc1nnc2sc(-c3cc(-c4ccccc4)nc4ccccc34)nn12`, the “% Inhibition” value was -1% and the Z score stood at 0.16.
For `COC[C@@H]1CN(C(=O)c2cscn2)C[C@H]1c1ccccn1`, in that order: -14% and 2.4.
With `Cc1nnc(-c2ccccc2C[C@H]2CCCCO2)s1`, the “% Inhibition” value is listed as -12% and the Z score worked out at 2.43.
Consider `O=C(COc1cccc(-n2cnnc2)c1)Nc1nc(C2CC2)n[nH]1`, for which the “% Inhibition” value is recorded as -10% and the Z score is on record as 1.12.
In the same order, the values of `CC1CCN(C(=O)[C@H]2CCCN(C(=O)c3nnc(C(=O)Nc4ccc5c(c4)OCO5)s3)C2)CC1` are -8% and 0.71.
For the molecule `Cc1nnc(CNC(=O)CCC(C)(C)C)o1`, the “% Inhibition” value is listed as -8% and the Z score worked out at 0.9.
`CN(C(=O)c1cc(C2CC2)on1)[C@H]1CCN(Cc2ccccc2)C1`: the “% Inhibition” value was -7% and the Z score stood at 0.96.
Take `COC[C@@](C)(O)CNC(=O)C(=O)NCc1ccc(C)cc1`: the “% Inhibition” value is given as -12% and the Z score is on record as 1.71.
For the molecule `Cc1ccc2nc(N3CCC(O)CC3)c(CN(C[C@H]3COc4ccccc4O3)C(=O)C3CCCCC3)cc2c1`, the “% Inhibition” value is -5% and the Z score amounted to 0.86.
`COC(=O)[C@]1(C)CN(C(=O)Nc2ccncn2)C[C@H]1C`: the “% Inhibition” value was -2% and the Z score worked out at 0.27.
Regarding `COCCN(Cc1csc(COc2ccccc2C(C)C)n1)S(=O)(=O)c1ccc(C)cc1`, the “% Inhibition” value is on record as -8% and the Z score worked out at 1.48.
Regarding `COCCn1c(N)c(N(Cc2ccccc2)C(=O)c2cc(OC)ccc2OC)c(=O)[nH]c1=O`, the “% Inhibition” value is -2% and the Z score is on record as 0.28.

The % Inhibition is the drop in the measured response relative to a control, in per cent.
